Measurements reported in PMC4336329 (PLoS ONE, 2015).
About 2,200 (0.71%) of roughly 310,000 compounds showed an effect of 50% or more. Effects have a minus sign here. The list shows a part of the results.

Target: human ether-à-go-go-related gene (hERG) potassium channel (human, UniProt Q12809)
Test: primary screen, population patch clamp on CHO cells stably expressing hERG

human ether-à-go-go-related gene (hERG) potassium channel, sequence (Q12809 whole entry, looked up): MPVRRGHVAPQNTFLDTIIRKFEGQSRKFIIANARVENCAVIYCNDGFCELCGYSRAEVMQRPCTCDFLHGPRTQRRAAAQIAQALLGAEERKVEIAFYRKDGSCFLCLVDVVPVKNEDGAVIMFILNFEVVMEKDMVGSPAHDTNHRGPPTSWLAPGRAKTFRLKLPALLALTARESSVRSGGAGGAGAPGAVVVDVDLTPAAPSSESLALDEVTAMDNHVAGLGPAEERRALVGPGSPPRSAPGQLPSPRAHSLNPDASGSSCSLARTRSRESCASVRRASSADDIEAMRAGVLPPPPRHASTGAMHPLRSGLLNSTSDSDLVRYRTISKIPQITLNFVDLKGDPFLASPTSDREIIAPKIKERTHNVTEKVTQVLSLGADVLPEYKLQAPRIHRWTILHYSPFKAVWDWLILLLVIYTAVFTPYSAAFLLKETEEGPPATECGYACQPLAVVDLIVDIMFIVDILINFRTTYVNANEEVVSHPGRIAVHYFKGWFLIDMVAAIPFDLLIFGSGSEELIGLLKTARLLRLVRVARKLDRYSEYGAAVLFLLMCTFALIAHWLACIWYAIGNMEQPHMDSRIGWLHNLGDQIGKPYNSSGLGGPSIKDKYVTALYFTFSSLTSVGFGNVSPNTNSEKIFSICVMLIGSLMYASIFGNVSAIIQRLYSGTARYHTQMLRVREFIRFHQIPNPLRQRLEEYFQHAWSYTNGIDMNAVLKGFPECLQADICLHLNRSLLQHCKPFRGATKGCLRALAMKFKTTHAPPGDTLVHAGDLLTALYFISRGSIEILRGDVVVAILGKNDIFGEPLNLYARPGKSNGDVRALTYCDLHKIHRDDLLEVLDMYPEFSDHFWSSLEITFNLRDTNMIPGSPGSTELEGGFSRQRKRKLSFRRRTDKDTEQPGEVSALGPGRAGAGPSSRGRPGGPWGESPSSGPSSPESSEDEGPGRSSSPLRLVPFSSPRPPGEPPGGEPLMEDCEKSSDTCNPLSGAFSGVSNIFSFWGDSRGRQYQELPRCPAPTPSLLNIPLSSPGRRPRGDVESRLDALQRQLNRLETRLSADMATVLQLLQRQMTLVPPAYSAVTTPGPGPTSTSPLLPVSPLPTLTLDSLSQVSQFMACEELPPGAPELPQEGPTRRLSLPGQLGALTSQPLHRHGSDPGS

Structure (SMILES) | hERG current change (%, negative = inhibition) at 1uM [%]
Cc1sc2nc3ccc(NCc4ccco4)nn3c(=O)c2c1C | 7.05
CCN(Cc1cnn(C)c1)Cc1nc(C2(c3ccc(C)cc3)CCCC2)no1 | 3.04
CCCn1c(CNc2ccccc2O)nc2ccccc21 | 1.37
COc1ccc(C(C(=O)NCC2CCCO2)N(Cc2ccco2)C(=O)c2snc(C(N)=O)c2N)cc1OC (stereo not drawn) | 6.78
COc1ccc(C(C(=O)NC(C)(C)C)N(C(=O)CCC(=O)Nc2cc(C)on2)c2cccc(F)c2)cc1 (stereo not drawn) | 9.61
C[C@H]1CN=C(N(C)C)N1CCC1CCCC1 | 14.9
CCN(CC)c1ccc2c(C)c(Cl)c(=O)oc2c1 | 4.68
CC(C)Oc1ccc(Nc2ncnc3ccccc23)cc1.Cl | 3.47
COc1ccccc1OCC(=O)N1CCCC(Nc2cccc(F)c2)C1 (stereo not drawn) | 4.39
CCC(=O)O/N=C(\N)c1ccc(Oc2cc(C)c(Cl)c(C)c2)c([N+](=O)[O-])c1 | 12.1
CCOC(=O)N1CCN(S(=O)(=O)c2ccc(C(=O)N(CCCN(C)C)c3nc4c(F)cc(F)cc4s3)cc2)CC1.Cl | 0.648
O=C(CN1CCN(Cc2ccccc2F)CC1)Nc1ccccc1Cl | 8.26
CCNC(=O)NC(=O)COC(=O)CCc1nc(=O)c2ccccc2n1C | 9.3
Nc1nnnn1/N=C/c1ccccc1OCc1ccc(Cl)cc1Cl | 5.55
CCOC(=O)C1CCCN(C(=O)CNS(=O)(=O)c2ccc(Br)s2)C1 (stereo not drawn) | -3.27
COC(=O)C1CCN(C(c2cccs2)c2sc3nc(C)nn3c2O)CC1 (stereo not drawn) | 4.94
CCC1=NC(c2ccccc2)N(O)C1(C)C (stereo not drawn) | 13
CNS(=O)(=O)c1cccc(C(=O)OCC(=O)N2c3ccccc3NC(=O)C2(C)C)c1 | 1.64
Oc1ccc(Cl)cc1C1=NCCNC(C(F)(F)C(F)F)=C1 | -12.9
CCN(Cc1ccccc1)C(=O)c1ccc(C)c(S(=O)(=O)N2CCCCC2)c1 | 11.5
Cc1ccc(S(=O)(=O)CCC(=O)OCCOc2cccc(Br)c2)cc1 | 0.325
Cc1ccc2[nH]c3c(=O)n(CC(=O)NCCCN(C)Cc4ccccc4)ncc3c2c1 | -2.53

Structure (SMILES) | hERG current change (%, negative = inhibition) at 1uM [%]
CN(CC(=O)N1CCN(c2ccccn2)CC1)S(=O)(=O)c1ccc(Cl)cc1 | -3.6
COc1ccccc1C(=O)O/N=C(/c1ccncc1)c1ccc([N+](=O)[O-])cc1 | 3.12
O=C1Nc2ccccc2C(=O)N2[C@H](c3cccc(Br)c3)[C@@H]3C(=O)N(Cc4ccccc4)C(=O)[C@@H]3[C@H]12 | 9.98
COc1cccc(OCc2cc(/C=N/Nc3ccc(C(=O)O)cc3)ccc2OC)c1 | 11.6
O=S(=O)(NCCC1=CCCCC1)c1ccc(Br)cc1 | 13
CCN1CCN(C(=O)N2CCOCC2)CC1 | 11.6
CCCC(=O)Nc1ccc(C(=O)COC(=O)c2cc(C)oc2C)cc1 | 5.01
Cc1cccc(NC(=O)Cn2c(O)c(N=NC(N)=S)c3ccccc32)c1 | 4.09
O=C(NCC1CCCO1)C1CCN(C(=O)c2ccc(Br)cc2)CC1 (stereo not drawn) | 5.33
O=C(Nc1ccc2c(c1)OCCO2)C(=S)NCc1ccccc1 | 11.8
Cc1ccc(Nc2ncnc3c2nnn3Cc2ccccc2)cc1 | 10.2
COc1cccc(C2CC(=O)C3=C(C2)Nc2ccccc2N(C(=O)CCC(=O)O)C3c2ccc(F)cc2)c1 (stereo not drawn) | 12.5
Cc1ccc(S(=O)(=O)Nc2ccc3c(c2)n(C)c(=O)n3C)c(C)c1 | 7.61
Cn1cnnc1Sc1ccc(C(F)(F)F)cc1[N+](=O)[O-] | 6.67
Nc1ccc(N2CCN(c3ccc(Cl)c(Cl)c3)CC2)cc1 | 12.4
CCOc1ccc(NC(=O)CCC(=O)Oc2ccc(C)cc2)cc1 | 17.6
Cc1oc(CC(C)C)cc1C(=O)Nc1cccc2ccccc12 | -4.1
Clc1ccc(CONc2ncnc3nonc23)c(Cl)c1 | 5.61
CCN(CC)c1ccc(CN(C(=O)c2cc(OC)c(OC)c(OC)c2)C2CCS(=O)(=O)C2)cc1 (stereo not drawn) | 13
CC(C)(C)OC(=O)N1CCN(c2ccc([N+](=O)[O-])cc2)CC1 | -29.6
Cc1oc(-c2ccccc2F)nc1CS(=O)(=O)CC(=O)NCc1ccccc1Cl | 4.76
O=C(c1ccc(Cl)cc1)C1CCCN(Cc2ccc3ncccc3c2)C1 (stereo not drawn) | -2.91

Structure (SMILES) | hERG current change (%, negative = inhibition) at 1uM [%]
COc1cccc(C(=O)NCc2nnc(SCC(=O)Nc3nccs3)n2-c2cccc(C)c2)c1 | -2.19
C/C=C/Cn1c(Br)nc2c1c(=O)[nH]c(=O)n2C | -2.09
CN(C)S(=O)(=O)N1CCN(c2ccnc3cc(Cl)ccc23)CC1 | -65.6
C=CCn1c(SCC(=O)N2CCOCC2)nc2sc(C)c(C)c2c1=O | -23.2
CCc1ccc(CNC(=O)C2CCCN(c3nn4c(=O)cc(C)nc4s3)C2)cc1 (stereo not drawn) | -4.79
Clc1ccc(Nc2nc(-c3cccs3)cs2)nc1 | 1.44
O=C(NCCn1ccc2ccccc21)c1cccc([N+](=O)[O-])c1 | 1.88
O=C(NCCc1cn2ccsc2n1)c1cccs1 | 3.31
COc1cc(/C=N/N2CCN(Cc3ccc(Cl)cc3)CC2)ccc1OC(C)=O | 4.61
O=C(CSc1ccc(-c2ccco2)nn1)NCc1ccc(Cl)cc1 | 1.89
O=C(COc1ccc(C(=O)O)cc1)Nc1cccc(C(F)(F)F)c1 | 8.66
O=C1CC2(CCCC2)CC(=O)N1c1ccccc1 | 14.7
CCNc1nc(Oc2ccc(Cl)cc2Cl)cc(C(F)(F)F)n1 | 5.11
CCOC(=O)/C=C/C(=O)OCC(=O)N1CCN(C(=O)c2ccco2)CC1 | 5.41
CCCCc1ccc(NC(=S)N2CCCC(C)C2)cc1 (stereo not drawn) | 10.2
O=C(O)c1ccccc1C1Nc2ccccc2C(=O)N1CCCN1CCOCC1 (stereo not drawn) | 18.1
CC(NC(=O)c1cc([N+](=O)[O-])cc([N+](=O)[O-])c1)C1CC2CCC1C2 (stereo not drawn) | 15.1
CCOc1ccccc1Oc1cn[nH]c1-c1ccc(OC)cc1O | 9.45
Cc1cccc(N2CCN(C(=O)CNC(=O)c3cccc([N+](=O)[O-])c3)CC2)c1C | -24.3
CN(C)C(CNc1ccc(C(F)(F)F)cc1[N+](=O)[O-])c1ccccc1 (stereo not drawn) | 2.18
COc1ccc(-c2[nH]ncc2C=O)cc1 | 11.6
CCOC(=O)C1(CCOc2ccccc2)CCN(C(=O)c2ccc(-n3cccn3)cc2)CC1 | -85.6

Structure (SMILES) | hERG current change (%, negative = inhibition) at 1uM [%]
Cc1cc(C(=O)OCC(=O)c2c(N)n(C)c(=O)n(C)c2=O)c(C)o1 | 17.8
COC(=O)CSc1nnc(CNc2ccc(Cl)cc2)n1Cc1ccccc1 | -19.6
CCOC(=O)c1c(C)nc2c(c1-c1cc(OC)ccc1OC)C(=O)c1ccccc1-2 | 0.269
CCN1CCN(C(CC(C)C)c2nnnn2CS(=O)(=O)c2ccc(C)cc2)CC1.Cl (stereo not drawn) | 11
COCCn1c(SCC(=O)c2ccccc2)nc2c(c1=O)SCC2 | -2.31
CC1=CC(=O)C(C(C)C)=C/C1=C(\c1cc(C(C)C)c(OP(=O)([O-])[O-])cc1C)c1ccccc1C(=O)O.[Na+] | 12.1
N#C/C(=C\c1ccccc1O)C(=O)Nc1cccnc1 | 8.27
O=C(Nc1ccc(F)cc1)C1CCN(S(=O)(=O)c2ccc3[nH]c(=O)oc3c2)CC1 | 0.557
Cc1ccccc1C(=O)Nc1nnc(-c2ccco2)o1 | 10.3
O=C(COC(=O)Cc1ccc(Cl)cc1)Nc1ccccc1F | -0.431
C=CCn1c(O)c(C2=c3ccccc3=NC2=O)s/c1=N/c1nccs1 | 15.7
COc1cc(NC(=S)N2CCN(CCO)CC2)cc(OC)c1 | 15.3
O=C(Nc1ccccc1C(=O)O)c1cc(S(=O)(=O)N2CCCCC2)c(Cl)cc1Cl | 17.8
C=CCNC(=S)/N=c1/ccccn1CC | 18.4
CCN(CC(=O)NCc1ccc(Cl)cc1)C(=O)c1cc(S(=O)(=O)NCc2ccccc2)ccc1C | -5.01
Cl.O=C(CSC1=NCCN1)Nc1cccc([N+](=O)[O-])c1 | 7.96
CCOc1cc(C(=S)N2CCCC2)ccc1OCC(=O)Nc1c(C)cc(C)cc1C | 8.39
COc1ccc(N2CCN(CC(=O)c3c(C)n(C)c4ccc(OC)cc34)CC2)cc1 | 8.16
O=C1NC2(CCCC2)N=C1c1ccc(Cl)cc1 | 5.1
COc1ccccc1-n1c(C)nnc1SCC(N)=O | 9.63
O=C(NC1CCSC1)c1cccc(Cl)c1 (stereo not drawn) | 14.3
